{
  "source": "PubChem BioAssay (NCATS)",
  "note": "The shares of active, inactive and inconclusive entries below differ from those in the screen. Potencies of inconclusive entries are left out as doubtful fits. Activity calls are given as the source filed them. The call rests on the fitted dose curve; in most records, active means well fitted inhibition curve with a large enough effect; inconclusive means small, poorly fitted or top-dose-only effect; inactive means flat fitted curve, though single readings scatter.",
  "data": [
    {"biological_target": "Phospholipid hydroperoxide glutathione peroxidase GPX4 (Homo sapiens) (UniProt P36969)", "sequence (P36969 whole entry, looked up)": "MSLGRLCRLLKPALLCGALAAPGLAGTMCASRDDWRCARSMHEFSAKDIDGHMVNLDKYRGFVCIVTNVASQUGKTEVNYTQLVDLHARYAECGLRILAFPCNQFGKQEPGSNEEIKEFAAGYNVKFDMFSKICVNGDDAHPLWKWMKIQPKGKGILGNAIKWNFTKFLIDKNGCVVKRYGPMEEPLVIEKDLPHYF", "assay": "Primary qHTS Assay for Inhibitors of Recombinant Selenoprotein Glutathione Peroxidase 4 (GPX4) (AID 1845192); further: nearly all actives have a fitted effect of over 65% in size; further: potency means the concentration at half of the fitted maximal effect; tags describe the fitted curve by direction and shape; on activity change, negative = inhibition: on the % scale 0 is the no-effect control and ±100 the full control effect", "details": "recombinant GPX4, GR-coupled NADPH fluorescence, 15 min; series mostly up to 50 µM; activity change, negative = inhibition: at the top concentration", "outline": "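GR-coupled assay: recombinant GPX4 preincubated 30 min with compound at room temperature; final 200 nM GPX4, 1 mM GSH, 0.5 mM cumene hydroperoxide, 0.5 mM NADPH, 100 nM GR, 0.01% BSA, pH 7.5 Tris. NADPH fluorescence (340/450 nm) read at 0 and 15 min.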", "values": [
      {"compound": "C/C=C1/CN2CC[C@]34C(=Nc5ccc(OC)cc53)C2C[C@@H]1C4(CO)C(=O)OC", "note": "(stereo partly drawn)", "activity change, negative = inhibition": "inactive: -13% [at 27.8 µM]"},
      {"compound": "CCCOC(=O)Cc1ccc(OCC(=O)N(CC)CC)c(OC)c1", "activity change, negative = inhibition": "inactive: -21.2% [at 27.8 µM]"},
      {"compound": "CC(=O)O[C@H]1CC[C@H]2[C@@H]3CCC4=CC(=O)CCC4=C3C=C[C@]12C", "Potency": "active: 22.4 µM"},
      {"compound": "COC(=O)C1=CCCN(C)C1", "activity change, negative = inhibition": "inactive: 3.08%"},
      {"compound": "CN1C[C@H](C(=O)N[C@]2(C)O[C@@]3(O)[C@@H]4CCCN4C(=O)[C@H](Cc4ccccc4)N3C2=O)C=C2c3cccc4[nH]cc(c34)C[C@H]21", "Potency": "inconclusive [inhibitor, single point]"},
      {"compound": "C=C1[C@@H]2CC[C@@]3(C)[C@H](c4ccoc4)OC(=O)C[C@]13O[C@H]1CC(=O)C(C)(C)[C@H](C(OC(C)=O)C(=O)OC)[C@]12C", "note": "(stereo partly drawn)", "activity change, negative = inhibition": "inactive: -9.04% [at 27.8 µM]"},
      {"compound": "O=C1NCN(c2ccccc2)C12CCN(CC1COc3ccccc3O1)CC2", "note": "(stereo not drawn)", "activity change, negative = inhibition": "inactive: -7.96%"},
      {"compound": "CC(C)=CCC[C@]1(C)C=Cc2c(O)c3c(c(CC=C(C)C)c2O1)O[C@]12C(=C[C@@H]4CC1C(C)(C)O[C@@]2(C/C=C(/C)C(=O)O)C4=O)C3=O", "Potency": "inconclusive [inhibitor, partial curve, poor fit]"},
      {"compound": "CO[C@H]1C[C@H](O[C@H]2CC[C@]3(CO)[C@H]4CC[C@]5(C)[C@@H](C6=CC(=O)OC6)CC[C@]5(O)[C@@H]4CC[C@]3(O)C2)O[C@H](C)[C@H]1O", "activity change, negative = inhibition": "inactive: -12.7% [at 27.8 µM]"},
      {"compound": "Cc1c(Cl)c(OCC(=O)N2CCN(C)CC2)nc2sc(C(=O)NC3CC3)c(N)c12", "activity change, negative = inhibition": "inactive: -6.93%"},
      {"compound": "C[C@@H]1Cc2c(Cl)cc(C(=O)N[C@@H](Cc3ccccc3)C(=O)O)c(O)c2C(=O)O1", "Potency": "inconclusive [inhibitor, single point]"},
      {"compound": "CNC(C)(C)Cc1ccccc1", "outcome": "inactive"},
      {"compound": "C[C@H]1C(=O)O[C@H]2[C@H](O)[C@]34C5OC(=O)[C@]3(O[C@@H]3OC(=O)[C@H](O)C34[C@H](C(C)(C)C)[C@H]5O)C12O", "note": "(stereo partly drawn)", "outcome": "inactive [at 27.8 µM]"},
      {"compound": "CN1Cc2c(ccc3c2OCO3)[C@@H]2[C@H]1c1cc3c(cc1C[C@@H]2O)OCO3", "outcome": "inactive [at 27.8 µM]"}
    ]},
    {"biological_target": "Luciferin 4-monooxygenase (Photinus pyralis) (UniProt P08659)", "assay": "Primary firefly luciferase (FLuc) qHTS assay for identification of artifact compounds. (AID 1845220); further: nearly all actives have a fitted effect of over 60% in size; further: potency means the concentration at half of the fitted maximal effect; tags describe the fitted curve by direction and shape;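 on activity change, negative = inhibition: plate controls were DMSO vehicle for no effect and no enzyme for full effect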", "details": "purified firefly luciferase, luminescence, 5 min; series mostly up to 54.1 µM; activity change, negative = inhibition: at the top concentration", "outline": "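Titrated compounds were incubated 15 min at RT, protected from light, with luciferin and ATP at 10 uM; reaction started with 10 nM FLuc, luminescence imaged at 5 min, and concentration-response fitted by Hill equation.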", "values": [
      {"compound": "CO[C@H]1[C@H](O)[C@H](O[C@H]2CC[C@]3(C=O)C4CC[C@]5(C)[C@H](C6=CC(=O)OC6)CC[C@]5(O)C4CC[C@@H]3C2)O[C@@H](C)[C@@H]1O", "note": "(stereo partly drawn)", "Potency": "inconclusive [inhibitor, partial curve, poor fit]"},
      {"compound": "CC[C@H](O)[C@@H](C)[C@H]1O[C@@H]1C[C@H](C)/C=C/C=C(\\C)[C@H]1OC(=O)C[C@H](O)CC[C@@](C)(O)[C@@H](OC(C)=O)/C=C/[C@@H]1C", "activity change, negative = inhibition": "inactive: -6.15%"},
      {"compound": "CN1CCC[C@@H]1Cc1c[nH]c2ccc(Nc3ncccc3[N+](=O)[O-])cc12", "outcome": "inactive"},
      {"compound": "C=C(CO)C(=O)O[C@H]1CC(=C)[C@@H]2C[C@H](O)C(=C)[C@@H]2[C@H]2OC(=O)C(=C)[C@@H]21", "Potency": "inconclusive [inhibitor, single point]"}
    ]}
  ]
}
